# Experimental data from PubChem BioAssay (Tox21).
# Where “and” joins values, the source holds several entries; their conditions need not be identical. Equal entries are not always repeated. The shares of active, inactive and inconclusive entries below differ from those in the screen. For part of these data: Potencies beside an inconclusive call are fits to weak or partial responses and may not hold up. The source holds several records for some structures; these can differ, active in one and inactive in another. Calls of active or inactive are those of the source. Unless noted, calls follow the shape of the dose curve; as a rule, active = well fitted curve in the direction sought with a large enough effect in the repeat runs; inconclusive = weak or mixed curves; inactive = no such curve, though single readings can be large; an effect the other way counts as inactive or inconclusive.
# Tests used:
# [1] = qHTS assay to identify small molecule antagonists of the retinoid acid receptor (RAR) signaling pathway - cell viability counter screen (AID 1159551); also: nearly all actives have a fitted effect of over 35% in size
# How it was run: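 ATP-based viability, C3RL4 cells, 6 h at 37 C with 1 uM final retinol co-added after compound; luminescence read 30 min post CellTiter-Glo, RT.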
# [2] = qHTS assay to identify small molecule agonists of the retinoic acid receptor (RAR) signaling pathway (AID 1159553); conditions: C3RL4 RARE luciferase reporter, agonist, 6 h; activation: at 73.3 µM (top of the series) unless noted; as to activation: % is scaled to controls: 0 for no effect and ±100 for the full control effect
# How it was run: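 Quantitative high-throughput format: the Tox21 10K library was tested on C3RL4 RARE-luciferase cells for 6 hr at 37 C and 5% CO2, with luminescence measured after a 30 min room-temperature reagent step.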
# [3] = qHTS assay to identify small molecule antagonists of the estrogen related receptor (ERR) signaling pathway from Tox21 library - cell viability counter screen (AID 1224834); also: nearly all actives have a fitted effect of over 30% in size
# How it was run: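 Compounds in DMSO were pinned onto ERR cells that had been incubated for 6 h, and the plates were held at 37 C for 17.5 h. CellTiter-Fluor reagent was then added and fluorescence was measured after 30 min.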
# [4] = qHTS assay to identify small molecule agonists of the constitutive androstane receptor (CAR) signaling pathway - cell viability counter screen (AID 1224836); also: nearly all actives have a fitted effect of over 45% in size
# How it was run: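 HepG2-CYP2B6-hCAR, 2500 cells/well, 4 h pre-incubation; cpd 15 conc + PK11195 0.75 uM final; 23 h, 37 C/5% CO2; CellTiter-Fluor, fluorescence.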
# [5] = qHTS assay to identify small molecule antagonists of the constitutive androstane receptor (CAR) signaling pathway - cell viability counter screen (AID 1224837); also: nearly all actives have a fitted effect of over 45% in size
# How it was run: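 Cells are seeded, rested 4 hr at 37 C/5% CO2, dosed with compound (15-point series) and 50 nM CITCO, incubated a further 23 hr, and then CellTiter-Fluor reagent is added before fluorescence is read. The line is HepG2 with stable hCAR and CYP2B6-2.2kb.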
# [6] = target: Thyrotropin receptor (Homo sapiens) (UniProt P16473); assay: qHTS assay to identify small molecule agonists of the thyroid stimulating hormone receptor (TSHR) signaling pathway (AID 1224843; calls by dose curve; also: nearly all actives have a fitted effect of over 45% in size; as to activation: % is scaled to controls: 0 for no effect and ±100 for the full control effect); conditions: TSHR-HEK293 cells, cAMP HTRF, agonist mode, 30 min; activation: at 92.4 µM (top of the series) unless noted
# Chain of UniProt P16473 (P16473 whole entry, looked up): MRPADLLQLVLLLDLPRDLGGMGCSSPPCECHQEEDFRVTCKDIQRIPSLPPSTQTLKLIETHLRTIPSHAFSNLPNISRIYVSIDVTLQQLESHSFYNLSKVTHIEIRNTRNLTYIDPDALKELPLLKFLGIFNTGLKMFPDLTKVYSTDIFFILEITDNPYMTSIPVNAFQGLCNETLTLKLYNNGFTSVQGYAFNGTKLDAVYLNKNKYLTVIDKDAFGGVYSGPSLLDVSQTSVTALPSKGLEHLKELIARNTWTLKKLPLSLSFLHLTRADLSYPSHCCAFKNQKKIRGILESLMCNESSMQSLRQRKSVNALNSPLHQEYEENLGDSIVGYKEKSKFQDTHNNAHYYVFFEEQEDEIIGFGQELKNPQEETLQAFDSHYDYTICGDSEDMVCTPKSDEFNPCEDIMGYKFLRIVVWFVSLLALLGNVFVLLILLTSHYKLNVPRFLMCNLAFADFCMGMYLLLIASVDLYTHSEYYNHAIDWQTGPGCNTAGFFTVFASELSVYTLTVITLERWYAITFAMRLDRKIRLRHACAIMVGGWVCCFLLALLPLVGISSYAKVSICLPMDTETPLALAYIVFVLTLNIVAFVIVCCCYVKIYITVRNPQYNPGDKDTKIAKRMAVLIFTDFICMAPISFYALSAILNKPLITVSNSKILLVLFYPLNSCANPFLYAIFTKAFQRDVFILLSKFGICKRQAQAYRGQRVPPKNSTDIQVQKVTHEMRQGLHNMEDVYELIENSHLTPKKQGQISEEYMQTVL
# How it was run: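 Agonist-mode screen: TSHR HEK293 cells received test chemicals for half an hour at room temperature, then HTRF cAMP detection reagents for one hour prior to fluorescence measurement. Each chemical ran as a 15-concentration series, triplicated.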
# [7] = qHTS assay to identify small molecule agonists of the hypoxia (HIF-1) signaling pathway - cell viability counter screen (AID 1224844; calls by dose curve; also: nearly all actives have a fitted effect of over 50% in size)
# How it was run: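 Viability counter screen: HRE-bla ME-180 cells plated 5 hrs before compound addition, treated 17 hrs at 37C and 5% CO2, then CellTiter-Glo added after the FRET reporter read; luminescence after 30 min.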
# [8] = qHTS assay to identify small molecule antagonists of the estrogen related receptor signaling pathway with the pleiotropic PPARgamma coactivator (PGC) from Tox21 10K library - cell viability counter screen (AID 1224840; active = well fitted cell-killing curve with a large enough effect in the repeat runs, not every such curve was filed as active; inconclusive = weak or mixed curves, or effect the other way; inactive = no such curve, though single readings can be large or run the other way; also: nearly all actives have a fitted effect of over 40% in size)
# How it was run: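 Cell viability is measured by CellTiter-Fluor fluorescence in PGC/ERR cells that receive compounds after a 6-hour attachment period and are then incubated 17.5 hours at 37 C.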
# [9] = qHTS assay to identify small molecule antagonists of the estrogen related receptor (ERR) signaling pathway - cell viability counter screen (AID 1224818);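 also: viability measured after 17.5 h of compound exposure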
# How it was run: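 Quantitative high-throughput viability counter screen in ERR cells. Compounds (DMSO) incubated 17.5 h at 37 C; read-out was CellTiter-Fluor fluorescence.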
# [10] = qHTS assay to identify small molecule antagonists of the estrogen related receptor signaling pathway with the pleiotropic PPARgamma coactivator (PGC) cell viability counter screen (AID 1224822)
# How it was run: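 Cytotoxicity in the PGC/ERR cell line is assessed with CellTiter-Fluor, read as fluorescence intensity 30 min after reagent addition, following 17.5 h compound treatment at 37 C.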
# [11] = target: Nuclear receptor subfamily 1 group I member 3 (Homo sapiens) (UniProt Q14994); assay: qHTS assay to identify small molecule antagonists of the constitutive androstane receptor (CAR) signaling pathway (AID 1224838);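 also: HepG2 cells stably expressing hCAR with CYP2B6 luciferase reporter stimulated by CITCO; nearly all actives have a fitted effect of over 40% in size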
# Chain of UniProt Q14994 (Q14994 whole entry, looked up): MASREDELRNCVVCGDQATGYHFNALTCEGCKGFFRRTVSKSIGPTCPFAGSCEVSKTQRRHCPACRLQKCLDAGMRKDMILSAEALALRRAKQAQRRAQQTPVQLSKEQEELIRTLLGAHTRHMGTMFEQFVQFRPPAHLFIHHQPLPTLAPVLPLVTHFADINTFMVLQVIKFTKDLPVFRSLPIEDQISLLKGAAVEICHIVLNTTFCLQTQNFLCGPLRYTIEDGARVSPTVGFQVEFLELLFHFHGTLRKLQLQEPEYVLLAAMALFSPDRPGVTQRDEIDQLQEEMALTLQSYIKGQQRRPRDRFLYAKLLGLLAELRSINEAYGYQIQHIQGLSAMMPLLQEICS
# How it was run: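 Luminescence from a CYP2B6-2.2kb promoter reporter in hCAR-expressing HepG2 cells reflects CAR signaling. Cells received compounds at 15 concentrations and 50 nM CITCO (final), then incubated 24 h at 37 C/5% CO2.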
# [12] = target: Luciferin 4-monooxygenase (Photinus pyralis) (UniProt P08659); assay: qHTS assay to identify small molecule inhibitors of firefly luciferase (AID 1224835); also: nearly all actives have a fitted effect of over 25% in size
# Chain of UniProt P08659 (P08659 whole entry, looked up): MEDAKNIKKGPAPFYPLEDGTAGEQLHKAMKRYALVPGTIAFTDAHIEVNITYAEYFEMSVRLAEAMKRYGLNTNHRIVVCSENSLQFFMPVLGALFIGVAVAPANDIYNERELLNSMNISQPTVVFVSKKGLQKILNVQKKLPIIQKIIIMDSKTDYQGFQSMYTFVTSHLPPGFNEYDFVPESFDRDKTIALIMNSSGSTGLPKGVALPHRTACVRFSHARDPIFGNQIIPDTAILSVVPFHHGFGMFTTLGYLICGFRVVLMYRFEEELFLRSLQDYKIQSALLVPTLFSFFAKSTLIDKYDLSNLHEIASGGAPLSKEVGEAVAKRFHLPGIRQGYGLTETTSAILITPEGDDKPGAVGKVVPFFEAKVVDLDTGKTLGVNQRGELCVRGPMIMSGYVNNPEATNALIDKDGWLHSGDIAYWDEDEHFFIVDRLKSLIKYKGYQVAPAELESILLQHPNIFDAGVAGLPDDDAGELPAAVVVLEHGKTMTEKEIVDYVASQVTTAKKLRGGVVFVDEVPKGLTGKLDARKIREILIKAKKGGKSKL
# How it was run: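 Biochemical qHTS: compounds run as interplate titrations against purified firefly enzyme, with D-luciferin and ATP each at its KM concentration. Light output recorded by CCD imaging.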
# [13] = target: Nuclear receptor subfamily 1 group I member 3 (Homo sapiens) (UniProt Q14994); assay: qHTS assay to identify small molecule agonists of the constitutive androstane receptor (CAR) signaling pathway (AID 1224839); also: nearly all actives have a fitted effect of over 15% in size
# How it was run: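 HepG2-CYP2B6-hCAR cells, 2500/well, 4 h pre-incubation; compounds 15 conc.; PK11195 0.75 uM final; 24 h, 37 C/5% CO2; ONE-Glo luciferase read.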
# Potency is read from the fitted curve at half-maximal effect; tags tell the direction and shape of the fitted curve or compound fluorescence and quenching.
compound,measurement,setting,value
Nc1c(N=Nc2ccc(-c3ccc(N=Nc4cc(S(=O)(=O)O)c5ccccc5c4N)cc3)cc2)cc(S(=O)(=O)O)c2ccccc12,Potency,[1],active: 17.2 µM
same,Potency,[2],inactive
same,Potency,[3],active: 21.7 µM
same,Potency,[4],active: 27.3 µM
same,Potency,[5],active: 24.3 µM
same,Potency,[6],"inconclusive: 27.3 µM [falling, full curve, poor fit]"
same,Potency,[7],"inconclusive: 15.5 µM [rising, full curve]"
C[C@@H](O[C@H]1OCCN(Cc2n[nH]c(=O)[nH]2)[C@H]1c1ccc(F)cc1)c1cc(C(F)(F)F)cc(C(F)(F)F)c1,Potency,[1],"inconclusive: 29.8 µM [cytotoxic, single point]"
same,Potency,[2],"inconclusive: 33.5 µM [inhibitor, partial curve]"
same,Potency,[4],"inconclusive: 33.5 µM [cytotoxic, partial curve, poor fit]"
same,Potency,[8],inconclusive: 26.6 µM [cytotoxic]
same,activation,[6],inconclusive: -18.5% [at 42.5 µM]
same,Potency,[7],active: 21.3 µM
CC[C@H]1CN2CCc3cc(OC)c(OC)cc3[C@@H]2C[C@@H]1C[C@H]1NCCc2cc(OC)c(OC)cc21,Potency,[1],"inconclusive: 68.8 nM [rising, full curve] and inconclusive: 335 nM [rising, full curve]"
same,Potency,[9],"inconclusive: 0.335 µM [cytotoxic, full curve]"
same,Potency,[10],"inconclusive: 0.473 µM [cytotoxic, full curve]"
same,Potency,[11],active: 54.6 nM and active: 237 nM
same,Potency,[8],active: 24.4 nM and active: 168 nM
C[C@@]12C(=O)OC(=O)[C@]1(C)C1CCC2O1,Potency,[1],active: 8.41 µM
same,Potency,[2],"inconclusive: 5.31 µM [inhibitor, full curve]"
same,Potency,[3],active: 6.68 µM
same,Potency,[5],active: 1.33 µM
same,Potency,[11],active: 668 nM
same,Potency,[8],"inconclusive: 10.6 µM [cytotoxic, full curve]"
CCCCCCCCOc1ccccc1C(=O)Nc1ccc(C(=O)OCC[N+](C)(CC)CC)cc1,Potency,[1],inconclusive: 29.8 µM [cytotoxic]
same,Potency,[3],inconclusive: 33.5 µM [cytotoxic]
same,Potency,[12],inactive
same,Potency,[6],"inconclusive: 33.5 µM [activator, single point]"
same,Potency,[7],active: 7.56 µM
C=CC1CO1 (configuration not stated),Potency,[1],inactive
same,Potency,[3],inactive
Cc1cc(N)n(-c2ccccc2)n1,Potency,[1],inactive
same,activation,[2],inconclusive: 9.07% [phenotype inactive]
same,Potency,[13],"inconclusive: 38.6 µM [activator, partial curve]"
Nc1ccc(O)c(N)c1,Potency,[1],"inconclusive: 60.7 µM [cytotoxic, partial curve] and inconclusive: 68.6 µM [cytotoxic]"
same,Potency,[3],"inconclusive: 34.1 µM [cytotoxic, partial curve] and inconclusive: 61.1 µM [cytotoxic, partial curve]"
same,Potency,[12],"inconclusive: 99.6 µM [inhibitor, partial curve, poor fit] and inconclusive: 100 µM [inhibitor, partial curve, poor fit]"
same,Potency,[5],inactive
same,Potency,[8],"inconclusive: 60.7 µM [cytotoxic, partial curve, poor fit]"
same,Potency,[6],active: 54.1 µM
same,activation,[6],inconclusive: 0.525%
O=C(Nc1ncc([N+](=O)[O-])s1)c1cccs1,Potency,[1],active: 23.7 µM
same,Potency,[2],active: 1.06 µM
same,Potency,[4],inconclusive: 26.6 µM [cytotoxic]
same,Potency,[5],"inconclusive: 26.6 µM [cytotoxic, partial curve]"
same,Potency,[13],active: 1.33 µM
O=c1cc(-c2ccccc2)oc2cc(O)cc(O)c12,Potency,[1],"inconclusive: 27.3 µM [rising, partial curve, poor fit]"
same,Potency,[2],active: 0.969 µM
same,Potency,[5],"inconclusive: 54.5 µM [cytotoxic, partial curve]"
same,Potency,[11],inactive
same,Potency,[8],"inconclusive: 30.6 µM [cytotoxic, partial curve]"
same,activation,[6],inconclusive: -31.6%
CNCCCC12CCC(c3ccccc31)c1ccccc12,Potency,[1],"inconclusive: 68.6 µM [cytotoxic, single point]"
same,Potency,[10],inconclusive: 24.6 µM [cytotoxic]
same,Potency,[8],active: 48.6 µM
same,Potency,[6],active: 4.33 µM and active: 26.6 µM
same,Potency,[7],inconclusive: 49 µM [cytotoxic]
